Measured values from the supplement of paper PMC10126150.
Sequences with one replicate were seen in a single cluster, so their values are uncertain.

tested on: ATP; experiment: switch fluorescence ratio, 500 uM ATP over buffer (Cy3 cluster intensity, sum of 5 cycles each) (fold (ratio)); higher = stronger signal-on switching upon ATP binding; sequences stand for … in TCGTCGGCAGCGTCAGATGTGTATAAGAGACAGTTTTTTTTTTTTTTTTTTTTTTTTT…TC; details: aptamer strand: ATP DNA aptamer (quencher-CACCTGGGGGAGTATTGCGGAGGAAGG + anchor), 100 nM annealed; ATP concentration: 500 uM; one replicate
Procedure, shortened: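 The fluorescence ratio divides summed target-cycle Cy3 intensity by summed buffer-cycle Cy3 intensity for each cluster and is averaged per switch-domain sequence. Cy3-labelled switching-strand clusters on a modified Illumina MiSeq flow-cell were annealed to 100 nM quencher-labelled ATP aptamer, then imaged in selection buffer and again after 15 min with 500 uM ATP at 22 °C. Five such cycles were run, with NaOH stripping and re-annealing between them, and clusters outside 100-1000 RFU were excluded.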
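Further: ATP exposure 15 min at 22 °C before imaging.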

Sequence | switch fluorescence ratio
CGAATTCCAT | 1.01
CGAATTCCCA | 1.01
CGACAACCTT | 1.84
CGACAAGCTC | 1.53
CGACAATAGA | 1.42
CGACACGTGT | 0.986
CGACACTCTG | 1.04
CGACAGCCGA | 1.09
CGACATCAG | 0.993
CGACATTATT | 1.06
CGACATTGCT | 0.975
CGACATTGGT | 0.99
CGACCACAGA | 1.38
CGACCAGACA | 1.1
CGACCCGGAT | 0.973
CGACCGAGTA | 1.07
CGACGAACAA | 1.84
CGACGAGGCG | 1.01
CGACGATTTT | 1.04
CGACGCGTCG | 1
CGACGGCGGG | 1.03
CGACGTATTA | 1.06
CGACGTCCGA | 1.04
CGACTAATGG | 1
CGACTAGCGC | 1.06
CGACTCCAAA | 1.32

Sequence | switch fluorescence ratio
CGACTCTAG | 1.03
CGACTCTTTT | 0.988
CGACTGCTGA | 1.09
CGACTGGAAA | 1.01
CGACTTAAAA | 1.02
CGACTTTTTG | 0.921
CGAGAACGGC | 1.01
CGAGAATGTG | 1
CGAGAGCTGG | 1.02
CGAGATGTGA | 1.01
CGAGCAAAAA | 3.27
CGAGCCAGTA | 1.19
CGAGCCTATT | 1.06
CGAGCTACAT | 1.13
CGAGCTCACA | 1.02
CGAGGAACAA | 1.06
CGAGGACCTT | 1.03
CGAGGCAGAG | 1.74
CGAGGCGGGA | 1.1
CGAGGCTACT | 2.89
CGAGGGCGTT | 1
CGAGGGGTC | 1.04
CGAGGGTGA | 1.05
CGAGGTCGCT | 1
CGAGGTCGGC | 1.1
CGAGGTTCGA | 0.939

Sequence | switch fluorescence ratio
CGAGTAAAAG | 1.03
CGAGTAAACC | 1.02
CGAGTAGTTC | 1.01
CGAGTATTCA | 0.969
CGAGTTGGA | 1.01
CGAGTTTCTA | 0.981
CGATAACTTG | 0.974
CGATAATCTG | 1.06
CGATAGCCAG | 1.02
CGATAGTGCA | 1
CGATAGTGCG | 0.947
CGATCACTGG | 1.03
CGATCCAGAT | 0.968
CGATCCGG | 1.03
CGATCGGTGC | 1.17
CGATCTTAAT | 0.987
CGATCTTATA | 0.964
CGATCTTGT | 1
CGATGACTGG | 1.06
CGATGAGGCA | 1.03
CGATGCCCTG | 0.994
CGATGCCTTG | 0.972
CGATGCGTAT | 1.01
CGATGCTACT | 1.41
CGATGCTCT | 1.06
CGATGGATCG | 1.03

Sequence | switch fluorescence ratio
CGATGGCTAC | 4.42
CGATGTGAGC | 1.06
CGATGTTA | 0.963
CGATGTTAGC | 1.06
CGATGTTTTA | 0.976
CGATTAAGAA | 0.991
CGATTATGTT | 1.03
CGATTCAGTT | 1.01
CGATTCGGCT | 0.967
CGATTGGACC | 1.09
CGATTGGCCT | 1.04
CGATTGGGTG | 1.04
CGATTGTCAA | 0.929
CGATTTAGTG | 0.972
CGCAAAGACT | 2.73
CGCAATCTGT | 6.53
CGCAATGAAA | 1.36
CGCACAGCTT | 1.02
CGCACCCCGG | 2.13
CGCACCGGG | 0.981
CGCACGGGGA | 1.05
CGCACGTACA | 1.68
CGCACGTTTT | 1.05
CGCACTCCGT | 1.59
CGCACTGAGC | 1.19
CGCAGAGCGG | 1.02

Sequence | switch fluorescence ratio
CGCAGGAAGC | 1.28
CGCAGGCTGG | 0.946
CGCATAAAGG | 1.08
CGCATAGGTG | 2.36
CGCATATGA | 1.96
CGCATCAATT | 1.04
CGCATCCAGG | 6.89
CGCATCTCGA | 1.12
CGCATGCGTG | 1.04
CGCATGGCTC | 1.96
CGCATGTTGG | 0.987
CGCCAAAGGA | 1.04
CGCCACGGCG | 1.01
CGCCCAGTC | 1.56
CGCCCCCAAG | 2.74
CGCCCCTCTG | 1.41
CGCCCGCTGG | 1.37
CGCCCGGCGC | 1.06
CGCCCTACGA | 1.2
CGCCCTCACC | 1.39
CGCCCTGGTC | 1.39
CGCCCTTTTT | 1.03
CGCCGACTAC | 2.65
CGCCGCCGGT | 1.07
CGCCGGGCTG | 0.996
CGCCGTTGTT | 0.975

Sequence | switch fluorescence ratio
CGCCTCCCGT | 1.54
CGCCTGCCTT | 1.03
CGCCTTCGAC | 1.3
CGCGAAAACT | 1.4
CGCGAAGGTG | 1.49
CGCGAAGTAC | 2.58
CGCGAATGAC | 1.7
CGCGATTTCA | 1.03
CGCGCACAGG | 2.49
CGCGCAGGA | 1
CGCGCAGGGC | 2.05
CGCGCATGGG | 1.07
CGCGCCTCCT | 1.21
CGCGCGGTTA | 1.04
CGCGCTTATT | 1.03
CGCGCTTTT | 1.03
CGCGGACAGC | 1.03
CGCGGAGTAA | 1.33
CGCGGCTGTT | 0.958
CGCGGGA | 0.984
CGCGGGTCTG | 1.01
CGCGGTCCT | 1.12
CGCGGTGAC | 1.53
CGCGGTGGGG | 0.974
CGCGGTGTG | 1.02
CGCGGTTCTT | 1.07

Sequence | switch fluorescence ratio
CGCGTAACTG | 0.975
CGCGTCATAA | 1.11
CGCGTGGGGT | 1.04
CGCGTTCTGA | 1.03
CGCGTTGCAC | 1.07
CGCTAATAAG | 1.18
CGCTAATTCT | 1.53
CGCTACTACT | 3.26
CGCTAGCAAA | 1.29
CGCTAGCTGG | 1.02
CGCTAGGTTT | 1.03
CGCTCACGAT | 1.05
CGCTCAGATT | 1
CGCTCATTGG | 1.06
CGCTCCAGAG | 1.1
CGCTCTCTAA | 1.04
CGCTGAACCC | 1.14
CGCTGGAGTC | 1.03
CGCTGGCCAA | 1.14
CGCTGGGACT | 1.18
CGCTGGGGTG | 0.979
CGCTTACTGA | 1.24
CGCTTCATTG | 1.04
CGCTTGGGCA | 0.967
CGCTTTGAGA | 0.996
CGCTTTTCAA | 1.04

Sequence | switch fluorescence ratio
CGGAAAAAAA | 0.935
CGGAAACGAC | 1.17
CGGACAGGTA | 1
CGGACATTGG | 1.02
CGGACCTTGA | 1.01
CGGACGCGGT | 1.72
CGGACTCTT | 1
CGGAGAAGCT | 1
CGGAGAATGT | 0.991
CGGAGACCAT | 0.997
CGGAGCGTTT | 1.2
CGGAGGGTTC | 1.1
CGGAGTATTT | 1.04
CGGATAAGAT | 0.986
CGGATATTTT | 1.07
CGGATCCAAA | 1.03
CGGATCGGCA | 1.02
CGGATGCAAG | 0.975
CGGATGCAGT | 0.977
